# Laboratory results published in the supplement of paper PMC8728848.
# Some of the results follow.
# B1: Ficolin A (Rattus norvegicus), Q9WTS8 (protein)
# chain: MWWPMLWAFPVLLCLCSSQALGQESGACPDVKIVGLGAQDKVAVIQSCPSFPGPPGPKGEPGSPAGRGERGLQGSPGKMGPPGSKGEPGTMGPPGVKGEKGERGTASPLGQKELGDALCRRGPRSCKDLLTRGIFLTGWYTIYLPDCRPLTVLCDMDVDGGGWTVFQRRVDGSINFYRDWDSYKRGFGNLGTEFWLGNDYLHLLTANGNQELRVDLREFQGQTSFAKYSSFQVSGEQEKYKLTLGQFLEGTAGDSLTKHNNMAFSTHDQDNDTNGGKNCAALFHGAWWYHDCHQSNLNGRYLPGSHESYADGINWLSGRGHRYSYKVAEMKIRAS
# Assays:
# Test in all cases: glycan array binding signal (z-score within array); higher = stronger binding
# Settings in all cases: glycan notation: IUPAC condensed, linker removed
# [1] = target: Neu5Ac(a2-3)Gal(b1-4)[Fuc(a1-3)]GlcNAc
# Procedure, shortened: (§1)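 Glycan array data came from 3228 arrays in the Consortium for Functional Glycomics database, and only arrays with an available protein sequence were kept. Glycan names were put into IUPAC-condensed notation, and columns mapping to the same glycan were averaged. The binding signal is a within-array Z-score, averaged across arrays of one protein sequence run at different concentrations or buffers and across linkers. A negative Z-score can be read as non-binding.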
# [2] = target: Neu5Ac(a2-3)Gal(b1-4)[Fuc(a1-3)]GlcNAc(b1-3)Gal
# Procedure, shortened: as §1
# [3] = target: Neu5Ac(a2-3)Gal(b1-4)[Fuc(a1-3)]GlcNAc(b1-3)Gal(b1-4)GlcNAc
# Procedure, shortened: as §1
# [4] = target: Neu5Ac(a2-3)Gal(b1-4)[Fuc(a1-3)]GlcNAc(b1-3)Gal(b1-4)[Fuc(a1-3)]GlcNAc(b1-3)Gal(b1-4)[Fuc(a1-3)]GlcNAc
# Procedure, shortened: as §1
# [5] = target: Neu5Ac(a2-3)Gal(b1-4)[Fuc(a1-3)]GlcNAc(b1-6)[Gal(b1-3)]GalNAc
# Procedure, shortened: as §1
# [6] = target: Neu5Ac(a2-3)Gal(b1-4)[Fuc(a1-3)]GlcNAc6S
# Procedure, shortened: as §1
# [7] = target: Neu5Ac(a2-3)Gal6S(b1-4)GlcNAc
# Procedure, shortened: as §1
# [8] = target: Neu5Ac(a2-3)Gal6S(b1-4)[Fuc(a1-3)]GlcNAc
# Procedure, shortened: as §1
# Neu5Ac(a2-3)GalNAc = target: Neu5Ac(a2-3)GalNAc
# Procedure, shortened: as §1
# [9] = target: Neu5Ac(a2-3)GalNAc(b1-4)GlcNAc
# Procedure, shortened: as §1
# [10] = target: Neu5Ac(a2-3)[GalNAc(b1-4)]Gal(b1-4)Glc
# Procedure, shortened: as §1
# [11] = target: Neu5Ac(a2-3)[GalNAc(b1-4)]Gal(b1-4)GlcNAc
# Procedure, shortened: as §1
# [12] = target: Neu5Ac(a2-3)[Neu5Ac(a2-6)]GalNAc
# Procedure, shortened: as §1
# Neu5Ac(a2-6)Gal = target: Neu5Ac(a2-6)Gal
# Procedure, shortened: as §1
# Neu5Ac(a2-6)Gal(b1-4)Glc = target: Neu5Ac(a2-6)Gal(b1-4)Glc
# Procedure, shortened: as §1
# [13] = target: Neu5Ac(a2-6)Gal(b1-4)GlcNAc
# Procedure, shortened: as §1
# [14] = target: Neu5Ac(a2-6)Gal(b1-4)GlcNAc(b1-2)Man(a1-3)[Gal(b1-4)GlcNAc(b1-2)Man(a1-6)]Man(b1-4)GlcNAc(b1-4)GlcNAc
# Procedure, shortened: as §1
# [15] = target: Neu5Ac(a2-6)Gal(b1-4)GlcNAc(b1-2)Man(a1-3)[GlcNAc(b1-2)Man(a1-6)]Man(b1-4)GlcNAc(b1-4)GlcNAc
# Procedure, shortened: as §1
# [16] = target: Neu5Ac(a2-6)Gal(b1-4)GlcNAc(b1-2)Man(a1-3)[GlcNAc(b1-2)Man(b1-4)GlcNAc(b1-2)Man(a1-6)]Man(b1-4)GlcNAc(b1-4)GlcNAc
# Procedure, shortened: as §1
# [17] = target: Neu5Ac(a2-6)Gal(b1-4)GlcNAc(b1-2)Man(a1-3)[Neu5Ac(a2-6)Gal(b1-4)GlcNAc(b1-2)Man(a1-6)]Man(b1-4)GlcNAc(b1-4)GlcNAc
# Procedure, shortened: as §1
# [18] = target: Neu5Ac(a2-6)Gal(b1-4)GlcNAc(b1-2)Man(a1-6)[Gal(b1-4)GlcNAc(b1-2)Man(a1-3)]Man(b1-4)GlcNAc(b1-4)GlcNAc
# Procedure, shortened: as §1
# [19] = target: Neu5Ac(a2-6)Gal(b1-4)GlcNAc(b1-2)Man(a1-6)[GlcNAc(b1-2)Man(a1-3)]Man(b1-4)GlcNAc(b1-4)GlcNAc
# Procedure, shortened: as §1
# [20] = target: Neu5Ac(a2-6)Gal(b1-4)GlcNAc(b1-3)Gal(b1-4)GlcNAc
# Procedure, shortened: as §1
# [21] = target: Neu5Ac(a2-6)Gal(b1-4)GlcNAc(b1-3)Gal(b1-4)[Fuc(a1-3)]GlcNAc(b1-3)Gal(b1-4)[Fuc(a1-3)]GlcNAc
# Procedure, shortened: as §1
# [22] = target: Neu5Ac(a2-6)Gal(b1-4)GlcNAc6S
# Procedure, shortened: as §1
# Neu5Ac(a2-6)GalNAc = target: Neu5Ac(a2-6)GalNAc
# Procedure, shortened: as §1
# [23] = target: Neu5Ac(a2-6)GalNAc(b1-4)GlcNAc
# Procedure, shortened: as §1
# Neu5Ac(a2-8)Neu5Ac = target: Neu5Ac(a2-8)Neu5Ac
# Procedure, shortened: as §1
# [24] = target: Neu5Ac(a2-8)Neu5Ac(a2-3)Gal(b1-4)Glc
# Procedure, shortened: as §1
# [25] = target: Neu5Ac(a2-8)Neu5Ac(a2-3)[GalNAc(b1-4)]Gal(b1-4)Glc
# Procedure, shortened: as §1
# [26] = target: Neu5Ac(a2-8)Neu5Ac(a2-8)Neu5Ac
# Procedure, shortened: as §1
# [27] = target: Neu5Ac(a2-8)Neu5Ac(a2-8)Neu5Ac(a2-3)Gal(b1-4)Glc
# Procedure, shortened: as §1
# [28] = target: Neu5Ac(a2-8)Neu5Ac(a2-8)Neu5Ac(a2-3)[GalNAc(b1-4)]Gal(b1-4)Glc
# Procedure, shortened: as §1
# [29] = target: Neu5Ac(a2-8)Neu5Ac(a2-8)Neu5Ac(a2-8)Neu5Ac(a2-3)[GalNAc(b1-4)]Gal(b1-4)Glc
# Procedure, shortened: as §1
# [30] = target: Neu5Ac(b2-6)Gal(b1-4)GlcNAc
# Procedure, shortened: as §1
# Neu5Ac(b2-6)GalNAc = target: Neu5Ac(b2-6)GalNAc
# Procedure, shortened: as §1
# [31] = target: Neu5Ac9Ac(a2-6)Gal(b1-4)GlcNAc
# Procedure, shortened: as §1
# [32] = target: Neu5Gc(a2-3)Gal(b1-3)GlcNAc
# Procedure, shortened: as §1
# [33] = target: Neu5Gc(a2-3)Gal(b1-3)[Fuc(a1-4)]GlcNAc
# Procedure, shortened: as §1
# Neu5Gc(a2-3)Gal(b1-4)Glc = target: Neu5Gc(a2-3)Gal(b1-4)Glc
# Procedure, shortened: as §1
# [34] = target: Neu5Gc(a2-3)Gal(b1-4)GlcNAc
# Procedure, shortened: as §1
# [35] = target: Neu5Gc(a2-3)Gal(b1-4)[Fuc(a1-3)]GlcNAc
# Procedure, shortened: as §1
# [36] = target: Neu5Gc(a2-6)Gal(b1-4)GlcNAc
# Procedure, shortened: as §1
# Neu5Gc(a2-6)GalNAc = target: Neu5Gc(a2-6)GalNAc
# Procedure, shortened: as §1
# [37] = target: Neu5Gc(b2-6)Gal(b1-4)GlcNAc
# Procedure, shortened: as §1
binder,measurement,setting,value
B1,glycan array binding signal (z-score),[1],-0.07
same,glycan array binding signal (z-score),[2],-0.04
same,glycan array binding signal (z-score),[3],0.009
same,glycan array binding signal (z-score),[4],-0.107
same,glycan array binding signal (z-score),[5],-0.048
same,glycan array binding signal (z-score),[6],-0.092
same,glycan array binding signal (z-score),[7],-0.033
same,glycan array binding signal (z-score),[8],-0.109
same,glycan array binding signal (z-score),Neu5Ac(a2-3)GalNAc,-0.087
same,glycan array binding signal (z-score),[9],-0.121
same,glycan array binding signal (z-score),[10],0.265
same,glycan array binding signal (z-score),[11],-0.117
same,glycan array binding signal (z-score),[12],-0.1
same,glycan array binding signal (z-score),Neu5Ac(a2-6)Gal,-0.042
same,glycan array binding signal (z-score),Neu5Ac(a2-6)Gal(b1-4)Glc,-0.094
same,glycan array binding signal (z-score),[13],-0.048
same,glycan array binding signal (z-score),[14],0.007
same,glycan array binding signal (z-score),[15],-0.108
same,glycan array binding signal (z-score),[16],0.086
same,glycan array binding signal (z-score),[17],-0.029
same,glycan array binding signal (z-score),[18],-0.062
same,glycan array binding signal (z-score),[19],-0.102
same,glycan array binding signal (z-score),[20],-0.028
same,glycan array binding signal (z-score),[21],-0.078
same,glycan array binding signal (z-score),[22],-0.051
same,glycan array binding signal (z-score),Neu5Ac(a2-6)GalNAc,-0.084
same,glycan array binding signal (z-score),[23],-0.09
same,glycan array binding signal (z-score),Neu5Ac(a2-8)Neu5Ac,0.58
same,glycan array binding signal (z-score),[24],-0.103
same,glycan array binding signal (z-score),[25],-0.068
same,glycan array binding signal (z-score),[26],-0.081
same,glycan array binding signal (z-score),[27],-0.087
same,glycan array binding signal (z-score),[28],-0.047
same,glycan array binding signal (z-score),[29],-0.064
same,glycan array binding signal (z-score),[30],1.16
same,glycan array binding signal (z-score),Neu5Ac(b2-6)GalNAc,-0.055
same,glycan array binding signal (z-score),[31],-0.047
same,glycan array binding signal (z-score),[32],-0.028
same,glycan array binding signal (z-score),[33],-0.037
same,glycan array binding signal (z-score),Neu5Gc(a2-3)Gal(b1-4)Glc,-0.099
same,glycan array binding signal (z-score),[34],-0.087
same,glycan array binding signal (z-score),[35],-0.11
same,glycan array binding signal (z-score),[36],-0.031
same,glycan array binding signal (z-score),Neu5Gc(a2-6)GalNAc,-0.035
same,glycan array binding signal (z-score),[37],-0.107
